# Hit rate of the full screen: of about 370,000 compounds, about 150 (0.041%) were called active. This list was built around the results that the source calls inconclusive (neither active nor inactive); the mix of calls is not that of the screen. Calls come from the whole dose curve; as a rule, active = well fitted inhibition curve with a large enough effect; inconclusive = small, poorly fitted or top-dose-only effect; inactive = flat fitted curve, though single readings scatter. No potency is given beside an inconclusive call; the fits are too rough.
# Target: Beta-lactamase (Escherichia coli (strain K12)) (UniProt P00811)
# Experiment: qHTS Inhibitors of AmpC Beta-Lactamase (assay with detergent); note: nearly all actives have a fitted effect of over 25% in size
# Settings: AmpC hydrolysis of nitrocefin, absorbance 480 nm, 0.01% Triton; series mostly up to 114 µM
# Procedure, shortened: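 20 mM phosphate pH 7.0 + 0.01% (detergent screen) or 0.0001% Triton X-100; 5.3 nM AmpC reagent; cpd preinc 15 min RT; nitrocefin (800 uM stock) to start; A480 q20 s × 4 min; Activity was normalised to no-enzyme and no-compound control wells.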
# Potency is the fitted concentration of half-maximal effect; tags give direction and shape of the fitted curve.
# Sequence of UniProt P00811 (P00811 whole entry, looked up): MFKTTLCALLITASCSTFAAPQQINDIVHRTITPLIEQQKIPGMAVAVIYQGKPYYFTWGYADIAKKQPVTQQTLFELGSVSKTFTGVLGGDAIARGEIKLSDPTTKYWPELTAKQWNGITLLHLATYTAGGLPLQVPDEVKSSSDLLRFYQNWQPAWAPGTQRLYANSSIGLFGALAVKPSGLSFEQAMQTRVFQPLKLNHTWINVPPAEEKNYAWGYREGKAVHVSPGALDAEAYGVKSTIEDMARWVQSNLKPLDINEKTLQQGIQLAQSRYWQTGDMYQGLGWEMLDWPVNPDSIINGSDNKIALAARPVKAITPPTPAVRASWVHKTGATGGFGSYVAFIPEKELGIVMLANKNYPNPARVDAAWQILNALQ
row,Compound,Potency
1,CCCc1nn(C(=O)c2ccccc2)c2c1C(=O)CC(C)(C)C2,"inconclusive [inhibitor, partial curve, poor fit]"
2,CCC(C)(C)n1nnnc1CN1CCc2ccccc21,"inconclusive [inhibitor, single point]"
3,CCN(CC)c1ncc(C#N)c(N)n1,inactive
4,CCOC(=O)CC(=O)CSc1ncnc2c1cnn2-c1ccccc1,inactive
5,CSc1ccc(C(C(C(=O)c2cccs2)N2CCOCC2)N2CCOCC2)cc1 (stereo not given),"inconclusive [inhibitor, single point]"
6,COc1cc(CCN2C(=O)c3cccc4cccc(c34)C2=O)c(S(=O)(=O)N2CCCCCC2)cc1OC,inactive
7,COc1ccc(-c2cc(C(=O)OC(C)C(=O)c3ccccc3)c3cccc(Cl)c3n2)cc1 (stereo not given),inactive
8,CCC(c1nnnn1Cc1ccco1)N(Cc1ccccc1OC)Cc1cc2cc(C)ccc2[nH]c1=O (stereo not given),inactive
9,NC(=O)C1CCN(C(=O)C23CC4CC(CC(C4)C2)C3)CC1,"inconclusive [inhibitor, single point]"
10,CN(Cc1ccccc1)C(=O)Nc1ccc2c(c1)N(C)C(=O)c1ccccc1S2,inactive
11,Cc1ccc(CN(C)C(=O)CCc2nc3sc4c(c3c(=O)[nH]2)CCCC4)o1,"inconclusive [inhibitor, full curve]"
12,CC1=CC(C)(C)N2C(=O)C(=O)c3cc(OC(=O)c4ccco4)cc1c32,inactive
13,Cc1ccc(-c2noc(Cn3cc(S(=O)(=O)N4CCCC4)ccc3=O)n2)cc1,inactive
14,Cc1ccc(CNCCNCCO)s1,"inconclusive [inhibitor, partial curve, poor fit]"
15,COc1ccccc1-c1nc(S(=O)(=O)c2ccc(Cl)cc2)c(N(C)C)o1,inactive
16,CCOc1ccc2nc(N3CCC(C(=O)N4CCN(c5ncccn5)CC4)CC3)sc2c1,inactive
17,Cc1ccc(-c2nnc(Nc3cccc(O)c3)c3ccccc23)cc1S(=O)(=O)N1CCOCC1,inactive
18,COc1ccc(-c2noc(CC(=O)Nc3ccc(F)cc3F)n2)cc1,inactive
19,CC1CC(C)CN(CCCNC(=O)CC2Oc3ccccc3NC2=O)C1 (stereo not given),"inconclusive [inhibitor, partial curve, poor fit]"
20,COc1ccccc1OC(C)C(=O)Nc1ccc(-c2nc3ccccc3s2)cc1 (stereo not given),inactive
21,CCCCCC(=O)N[C@@H](c1ccccc1)[C@@H](O)C(=O)O[C@H]1C[C@@]2(O)[C@@H](OC(=O)c3ccccc3)C3[C@](C)(C(=O)[C@H](O)C(=C1C)C2(C)C)[C@@H](OC1OCC(O)C(O)C1O)C[C@H]1OC[C@@]31OC(C)=O (stereo not given in full),"inconclusive [inhibitor, single point]"
22,Nc1ccc(C(=O)N/N=C/c2cn(Cc3ccccc3F)c3ccccc23)cc1,"inconclusive [inhibitor, full curve]"
23,CCN(CC)S(=O)(=O)c1cccc(C(=O)N/N=C2\CCCC(=O)C2)c1,"inconclusive [inhibitor, single point]"
24,Cc1cc(C)cc(NCc2cc3c(cc2[N+](=O)[O-])OCO3)c1,inactive

row,Compound,Potency
1,COC(=O)c1cc(C(=O)OCC(=O)NNC(=O)c2cccs2)cc([N+](=O)[O-])c1,"inconclusive [inhibitor, full curve, poor fit]"
2,COc1ccc(CCNc2nc(-c3sc(C)nc3C)cs2)cc1OC,"inconclusive [inhibitor, full curve]"
3,O=C(O)/C=C/C(=O)NCCc1cccc(Cl)c1,inactive
4,CCN1CC2=C(OC(N)=C(C#N)C2c2cccs2)/C(=C\c2cccs2)C1 (stereo not given),"inconclusive [inhibitor, full curve, poor fit]"
5,Cc1noc(C)c1S(=O)(=O)NCCN1CCN(c2ccccc2)CC1,"inconclusive [inhibitor, full curve, poor fit]"
6,Cc1c(NC(=O)Nc2cccs2)cccc1[N+](=O)[O-],inactive
7,O=C(CCN1CCOCC1)Nc1ccc2c(c1)N(C(=O)CN1CCOCC1)c1ccccc1CC2,"inconclusive [inhibitor, full curve]"
8,CCOCCc1nnc(NC(=O)Cc2ccc(Br)cc2)s1,"inconclusive [inhibitor, single point]"
9,CCOC(=O)c1c(C)[nH]c(CCC(=O)NCc2ccc(CC)cc2)c1C,inactive
10,CC1(C)CC(=O)C2=C(C1)OC(/N=C/N1CCOCC1)=C(C#N)C2c1ccccc1 (stereo not given),"inconclusive [inhibitor, partial curve, poor fit]"
11,O=C(OCC(=O)N1CCOCC1)c1ccc2[nH]c3c(c2c1)CCCC3,"inconclusive [inhibitor, partial curve, poor fit]"
12,COc1cnn(Cc2ccccc2)c(=O)c1SCc1ccccc1,"inconclusive [inhibitor, single point]"
13,O=C(NCc1ccco1)c1ccc(COc2cc(Cl)ccc2Cl)cc1,"inconclusive [inhibitor, partial curve, poor fit]"
14,CCOc1ccc(C(=O)Nc2ccc3nc(SCCOc4ccccc4)sc3c2)cc1,inactive
15,COc1ccc(S(=O)(=O)NCC(c2ccc3c(c2)OCO3)N2CCOCC2)cc1C (stereo not given),"inconclusive [inhibitor, partial curve, poor fit]"
16,CC(=O)c1c(C)cc(C)c(CSc2nc(C)cc(=O)[nH]2)c1C,inactive
17,Cc1cc(-c2ccccc2)nc2[nH]n(-c3ccccc3)c(=O)c12,inactive
18,CCN(CC)CCCNC(=O)c1ccc(-c2nc(CN3CCc4ccccc43)c(C)o2)cc1,inactive
19,CCOc1ccc(Nc2ncnc3ccc([N+](=O)[O-])cc23)cc1,"inconclusive [inhibitor, full curve, poor fit]"
20,COc1cc(NC(=O)COc2cc(O)c3c(c2)OC(C)(C)CC3=O)cc(OC)c1OC,"inconclusive [inhibitor, full curve, poor fit]"
21,Cc1nn(Cc2ccccc2)c(C)c1NC(=O)CSc1n[nH]c(C)c1[N+](=O)[O-],"inconclusive [inhibitor, full curve, poor fit]"
22,O=C(CSc1nnc(-c2ccccc2)o1)c1cccc([N+](=O)[O-])c1,inactive
23,Cc1csc2nc(O)c(C(=O)NCCCN3CCCC3=O)c(=O)n12,"inconclusive [inhibitor, partial curve, poor fit]"
24,COc1cccc(-c2nnc(SCC(=O)N(C(C)C)C(C)C)o2)c1,"inconclusive [inhibitor, full curve]"

row,Compound,Potency
1,CC(=O)Nc1sc2c(c1C(c1ccncc1)N1CCOCC1)CCCC2 (stereo not given),inactive
2,Clc1ccc(/C=C/c2nc3ccccc3[nH]2)cc1,"inconclusive [inhibitor, partial curve, poor fit]"
3,COc1ccc2cc(CN(Cc3cccs3)Cc3nnnn3Cc3ccccc3)c(=O)[nH]c2c1,"inconclusive [inhibitor, partial curve, poor fit]"
4,COC(=O)c1ccc(/C=C/c2ccc3cccc(OC)c3n2)cc1,"inconclusive [inhibitor, single point]"
5,O=C(NCc1cccnc1)c1ccc(COc2ccccc2Br)cc1,"inconclusive [inhibitor, full curve]"
6,O=C(CSc1nnc(-c2cccs2)o1)Oc1ccccc1,inactive
7,CCCc1cc(=O)[nH]c(Nc2ccc3c(c2)OCCO3)n1,"inconclusive [inhibitor, full curve]"
8,Cc1nc2ccccc2nc1SCC(=O)N1CCC(C)CC1,"inconclusive [inhibitor, single point]"
9,O=C(O)C(c1ccccc1)C1(O)CCCC1 (stereo not given),"inconclusive [inhibitor, partial curve, poor fit]"
10,Cc1ccc(OCCOCCOc2ccc(Br)cc2/C=N\NC(=O)c2ccncc2)cc1,"inconclusive [inhibitor, full curve, poor fit]"
11,CCC(=O)Nc1cc(-c2nn(C)c(=O)c3ccccc23)ccc1OC,"inconclusive [inhibitor, full curve, poor fit]"
12,CCc1ccc(C(=O)c2cn(CC(=O)Nc3cc(C)ccc3C)c3nc(C)ccc3c2=O)cc1,inactive
13,O=C(N[C@@H](Cc1c[nH]c2ccccc12)C(=O)O)OCC1c2ccccc2-c2ccccc21,"inconclusive [inhibitor, partial curve]"
14,CCNC(=O)COC(=O)c1[nH]c(C)c(C(=O)OC)c1C,"inconclusive [inhibitor, full curve]"
15,Cc1[nH]nc(-c2ccc(O)c(C)c2O)c1Oc1ccccc1,inactive
16,COc1ccc(C2CC(c3cccs3)=NN2c2ccc(F)cc2)cc1OC (stereo not given),"inconclusive [inhibitor, full curve]"
17,COCC(=O)Nc1cc(C(=O)NCCc2ccccc2)ccc1Cl,inactive
18,CN(C)c1ccc(-c2nc(-c3cc4cc(Cl)ccc4oc3=O)cs2)cc1,inactive
19,Cc1c(C)c2ccc(OC(C)C(=O)N3C[C@H]4C[C@@H](C3)c3cccc(=O)n3C4)c(C)c2oc1=O (stereo not given in full),"inconclusive [inhibitor, full curve, poor fit]"
20,CC(C)N1CC(COc2ccc(Cl)cc2Cl)OC1=O (stereo not given),inactive
21,CN1C(=O)C(Cc2c[nH]c3ccccc23)C(=O)N(C)C1=O,"inconclusive [inhibitor, full curve, poor fit]"
22,CCOC(=O)C1=C(N)OC2=C(C(=O)CCC2)C1c1sccc1C (stereo not given),"inconclusive [inhibitor, full curve, poor fit]"
